# Results as given in PubChem BioAssay AID686978 (National Center for Advancing Translational Sciences (NCATS), 2013).
# Several values for one entry are separate records, joined by “and”; a condition that tells them apart may be missing. Identical values can stand only once. Screen size: about 420,000 compounds; about 64,000 (15%) were called active. This list was built around the results that the source calls inconclusive (neither active nor inactive); the mix of calls is not that of the screen. The call rests on the fitted dose curve; in most records, active means well fitted inhibition curve with a large enough effect; inconclusive means small, poorly fitted or top-dose-only effect; inactive means flat fitted curve, though single readings scatter. A potency beside an inconclusive call is a rough fit, not a confirmed value.
# Assay: qHTS for Inhibitors of human tyrosyl-DNA phosphodiesterase 1 (TDP1): qHTS in cells in absence of CPT; further: nearly all actives have a fitted effect of over 55% in size
# Settings: DT40 Tdp1-/- hTDP1 cells, no CPT, ATP luminescence, 48 h; activity change, negative = growth inhibition: at 46.2 µM (top of the series) unless noted
# Method in brief: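 Chicken DT40 Tdp1-/- cells stably complemented with human TDP1 were seeded at 400 cells/well with DMSO in place of 20 nM camptothecin. After compound pinning, cells grew at least 48 hr at 37 °C; viability read by CellTiter-Glo luminescence.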
# On the % scale 0 is the no-effect control and ±100 the full control effect; potency means the concentration at half of the fitted maximal effect; tags describe the fitted curve by direction and shape.
SMILES,Potency,"activity change, negative = growth inhibition"
O=C1C2CCN(CC2)[C@@H]1Cc1ccc2ccccc2c1O,"inconclusive: 29.1 µM [inhibitor, single point]",–
COc1ccc(Br)cc1C1SCC(=O)Nc2c1c(C)nn2-c1ccccc1C (stereo unspecified),active: 18.4 µM,–
O=C(Oc1ccccc1)N1CCC2(CCCN(C(c3ccccc3)c3ccccc3)C2)CC1,–,inactive: -13.4%
CC(C)(C)n1nnnc1C(c1ccnc2ccccc12)N1CCC2(CC1)C(=O)NCN2c1ccccc1 (stereo unspecified),"inconclusive: 29.1 µM [inhibitor, single point]",–
CCC(=NCCO)c1c(O)n(C2CCCCC2)c(=O)[nH]c1=O,–,inactive: -21.4%
COc1ccc(C(Nc2ccccc2)P(=O)(Oc2ccccc2)Oc2ccccc2)cc1 (stereo unspecified),"inconclusive: 16.4 µM [inhibitor, partial curve, poor fit]",–
CC(C)OP(=O)(Oc1ccc(C(O)C(Cl)(Cl)Cl)cc1)OC(C)C (stereo unspecified),active: 18.4 µM,–
COc1ccc(C2CC(=O)Nc3cc4c(cc32)OCO4)c(OC)c1 (stereo unspecified),active: 14.6 µM,–
CCC1(C(=O)c2ccc(C)cc2)C2c3ccccc3OC(=O)C21C(=O)O (stereo unspecified),–,inactive: 2.32%
CCOC(=O)C1(c2ccccc2)CCN(CCC(=O)Nc2ccc(C(=O)OC)cc2)CC1,"inconclusive: 29.1 µM [inhibitor, single point]",–
CC1(C)CC(=O)c2cc(OCC(=O)N3CCN(Cc4ccccc4)CC3)ccc2O1,–,inactive: -2.78%
CC(C)=O,"inconclusive: 33.5 µM [inhibitor, single point]",–
Cc1ccc(CN2C3CCCC2CC(NC(=S)NCc2ccccc2)C3)cc1 (stereo unspecified),"inconclusive: 20.6 µM [inhibitor, single point]",–
COc1ccc(CCNC(=O)COC(=O)Cc2ccccc2)cc1,"inconclusive: 1.46 µM [inhibitor, full curve]",–
CCC1(C)OC(c2ccccc2)=C/C(=C/C=C2C(=O)NC(=O)NC2=O)O1 (stereo unspecified),"inconclusive: 29.1 µM [inhibitor, single point]",–
Oc1ccccc1O,"inconclusive: 29.1 µM [inhibitor, single point]",–
O=S(=O)(c1ccc(Cl)cc1)N1CN2CCN(C2)C1,"inconclusive: 16.4 µM [inhibitor, single point]",–
CCCC12CN3CC(C)(CN(C1)C3c1c(C)[nH]c(=O)[nH]c1=O)C2=O (stereo unspecified),–,inactive: -23.5%
CCC1Nc2ncnc(N3CCN(c4ccccn4)CC3)c2N(Cc2ccc(Br)cc2)C1=O (stereo unspecified),"inconclusive: 16.4 µM [inhibitor, single point]",–
O=C(Cc1ccccc1)N1CCN(Cc2cccnc2)CC1,–,inactive: -5%
O=C1CSC(c2ccccc2Cl)c2cc(Cl)ccc2N1 (stereo unspecified),active: 38.9 µM,–
C1=NCCc2c1[nH]c1ccccc21,"inconclusive: 29.1 µM [inhibitor, single point]",–
Cc1cc(N2CCCC2)ccc1C=C(C#N)C#N,–,inactive: -17.4%
C=CCN(CC=C)Cc1c[nH]c2ccccc12,"inconclusive: 20.6 µM [inhibitor, single point]",–

SMILES,Potency,"activity change, negative = growth inhibition"
CCCCn1c(CN2CCN(c3ccc(F)cc3)CC2)nc2c1c(=O)n(C)c(=O)n2C,active: 1.64 µM,–
O[C@@H]1CCCC[C@@H]1N1CCC(c2ccccc2)CC1,–,inactive: 8.35%
CC1CCCN(C(=O)c2ccc(N3CC4CC(C3)c3cccc(=O)n3C4)c([N+](=O)[O-])c2)C1 (stereo unspecified),–,inactive: -24.2%
CCCCCCCn1c(=O)c(C(=O)Nc2cnccn2)c(O)c2ccccc21,active: 0.58 µM,–
COc1ccc(-n2nnnc2C(CCc2ccccc2)N2CCC3(CC2)C(=O)NCN3c2ccccc2)cc1 (stereo unspecified),"inconclusive: 23.1 µM [inhibitor, single point]",–
O=C1CN=C(c2ccccc2)c2ccccc2N1Cc1ccc(C(F)(F)F)cc1,"inconclusive: 35.5 µM [inhibitor, single point]",–
COc1ccc(S(=O)(=O)N(CC(=O)NCc2ccccc2OC)c2ccc(C)cc2)cc1,"inconclusive: 32.6 µM [inhibitor, partial curve, poor fit]",–
CCNCC1(c2ccc(OC)c(OC)c2)CCCC1,–,inactive: -4.32%
COC(=O)C1=C(c2cccc(C#N)c2)C[C@@H]2CC[C@H]1N2C(=O)N1CCCC1,active: 18.4 µM,–
N#CCCn1cc(C(=O)Nc2ccc([N+](=O)[O-])cc2)c(-c2ccc3c(c2)OCCO3)n1,–,inactive: -14.5%
NCCCC[C@H](N[C@@H](CCc1ccccc1)C(=O)O)C(=O)N1CCC[C@H]1C(=O)O,"inactive and inconclusive: 4.61 µM [inhibitor, full curve]",–
Cc1cccc(CN(C)C)c1OC(=O)N(C)C,–,inactive: 9.26%
CC[C@@H]1CN2CC[C@@H]1C[C@H]2[C@H](O)c1ccnc2ccc(OC)cc12,"inconclusive: 11.9 µM [inhibitor, full curve]",–
CCOC(=O)[C@]12Cc3cc(OC)ccc3[C@H]1N(Cc1ccccc1)C(=O)c1cc(F)c(F)cc12,"inconclusive: 22.4 µM [inhibitor, single point] and inconclusive: 16.4 µM [inhibitor, single point]",–
FC(F)(F)c1cccc(C2NCc3ccccc3-n3cccc32)c1 (stereo unspecified),"inconclusive: 25.9 µM [inhibitor, single point]",–
COc1ccc(C(Nc2cccc([N+](=O)[O-])c2)P(=O)(OC(C)C)OC(C)C)cc1 (stereo unspecified),active: 16.4 µM,–
FC(F)(F)c1cccc(-n2nnnc2C2(N3CCOCC3)CCCCC2)c1,"inconclusive: 20.6 µM [inhibitor, single point]",–
c1csc(C2(N3CCCCC3)CCCCC2)c1,–,inactive: -15.9%
CCOc1ccc(C2SCC(=O)Nc3c2c(=O)[nH]n3C2CCCCCC2)cc1 (stereo unspecified),"inconclusive: 18.4 µM [inhibitor, partial curve]",–
Cn1ccc2c(-c3ccc(F)nc3)cc3c(c21)C1CCC3C1 (stereo unspecified),"inconclusive: 20.6 µM [inhibitor, single point]",–
CCN1CC=C(c2c[nH]c3ccccc23)CC1,"inconclusive: 18.4 µM [inhibitor, partial curve, poor fit]",–
COc1ccc(-n2c(/C=C/c3cccc(F)c3)nc3ccccc3c2=O)cc1Cl,"inconclusive: 18.4 µM [inhibitor, single point]",–
Cc1cccc(CN2C(=O)CN=C(c3ccccc3)c3ccccc32)c1,active: 5.8 µM,–
c1cncc(CNC2=NCCCCC2)c1,–,inactive: 4.17%

SMILES,Potency,"activity change, negative = growth inhibition"
COc1ccccc1N1CCN(Cc2ccc(Cl)cc2Cl)CC1,"inconclusive: 23.1 µM [inhibitor, single point]",–
OC(CCNCCc1c[nH]c2ccccc12)C(F)(F)Cl (stereo unspecified),–,inactive: 5.25%
c1cc2c(cc1C1OCC3C(c4ccc5c(c4)OCO5)OCC13)OCO2 (stereo unspecified),"inconclusive: 16.4 µM [inhibitor, single point]",–
CC(C)(C)N1C(=O)NC(=O)/C(=C\c2ccc3c(c2)CCN3CCCCl)C1=O,"inconclusive: 16.4 µM [inhibitor, single point]",–
Cc1ccc(OCCOc2cccc(C=C3C(=O)NC(=O)NC3=O)c2)c(C)c1,"inconclusive: 25.9 µM [inhibitor, single point]",–
O=C(N[C@@H]1N=C(c2ccccc2F)c2cccc3c2N(CC3)C1=O)c1cc2ccccc2[nH]1,"inconclusive: 15 µM [inhibitor, partial curve, poor fit]",–
Cc1cc(N2C(=O)CC(N3CCC(n4c(=O)[nH]c5ccccc54)CC3)C2=O)no1 (stereo unspecified),"inconclusive: 29.1 µM [inhibitor, single point]",–
CCCCCCn1c(N)c(C(=O)NCCN2CCOCC2)c2nc3ccccc3nc21,"inconclusive: 29.1 µM [inhibitor, single point]",–
COC(=O)C1=C(c2cc3ccccc3s2)C[C@@H]2CC[C@H]1N2C(=O)NCCCOC(C)C,active: 18.4 µM,–
CCOP(=O)(/C(C#N)=C(\C)O)c1ccccc1 (stereo unspecified),"inconclusive: 13 µM [inhibitor, single point]",–
CC1(C)CC(n2[nH]c(=O)c3c2NC(=O)CSC3c2ccccc2)CCO1 (stereo unspecified),"inconclusive: 32.6 µM [inhibitor, partial curve, poor fit]",–
CC(C)C(=O)c1cn(Cc2ccc(C#N)cc2)c2ccccc12,"inconclusive: 23.1 µM [inhibitor, single point]",–
C[C@]12N[C@H](Cc3ccccc31)c1ccccc12,"inactive and inconclusive: 8.41 µM [inhibitor, partial curve, poor fit]",–
Cc1cc(=O)[nH]c(CCl)n1,"inconclusive: 23.1 µM [inhibitor, partial curve, poor fit]",–
CC(C)[C@H](N)C(=O)OCCOCn1cnc2c(=O)[nH]c(N)nc21,active: 3.76 µM and active: 1.64 µM and active: 2.91 µM,–
ClCCNc1nc2ccc(Cl)cc2[nH]1,–,inconclusive: -31.3% [inhibitor]
CN1CCN(CCC(=O)OC2CC3CCC(C2)N3C)CC1 (stereo unspecified),–,inactive: -25.3%
O=C(O[C@H]1CN2CCC1CC2)N1CCc2ccccc2[C@@H]1c1ccccc1,active: 21.1 µM,–
CNS(=O)(=O)c1ccc(N=Cc2c(O)n(-c3ccc(C)cc3)c(=O)[nH]c2=O)cc1,–,inactive: 0.0275%
COP(=O)(NS(=O)(=O)c1ccccc1)OC,–,inactive: 10.3%
CC(=O)OC1(Cc2ccccc2)CN2CCC1c1ccccc12 (stereo unspecified),"inconclusive: 25.9 µM [inhibitor, single point]",–
COc1cc(O)cc2c1cc([N+](=O)[O-])c1c(C(=O)O)cc3c(c12)OCO3,"inconclusive: 32.6 µM [inhibitor, single point]",–
O=C(Cc1ccccc1)OCCN1CCOCC1,"inconclusive: 5.17 µM [inhibitor, partial curve]",–
